According to paper PMC4336329 (PLoS ONE, 2015):
About 2,200 (0.71%) of roughly 310,000 compounds showed an effect of 50% or more. The effect is printed as a negative number. The list shows a part of the results.

The compounds below were run against human ether-à-go-go-related gene (hERG) potassium channel (human, UniProt Q12809) (assay: primary screen, population patch clamp on CHO cells stably expressing hERG).
Chain of human ether-à-go-go-related gene (hERG) potassium channel (Q12809 whole entry, looked up): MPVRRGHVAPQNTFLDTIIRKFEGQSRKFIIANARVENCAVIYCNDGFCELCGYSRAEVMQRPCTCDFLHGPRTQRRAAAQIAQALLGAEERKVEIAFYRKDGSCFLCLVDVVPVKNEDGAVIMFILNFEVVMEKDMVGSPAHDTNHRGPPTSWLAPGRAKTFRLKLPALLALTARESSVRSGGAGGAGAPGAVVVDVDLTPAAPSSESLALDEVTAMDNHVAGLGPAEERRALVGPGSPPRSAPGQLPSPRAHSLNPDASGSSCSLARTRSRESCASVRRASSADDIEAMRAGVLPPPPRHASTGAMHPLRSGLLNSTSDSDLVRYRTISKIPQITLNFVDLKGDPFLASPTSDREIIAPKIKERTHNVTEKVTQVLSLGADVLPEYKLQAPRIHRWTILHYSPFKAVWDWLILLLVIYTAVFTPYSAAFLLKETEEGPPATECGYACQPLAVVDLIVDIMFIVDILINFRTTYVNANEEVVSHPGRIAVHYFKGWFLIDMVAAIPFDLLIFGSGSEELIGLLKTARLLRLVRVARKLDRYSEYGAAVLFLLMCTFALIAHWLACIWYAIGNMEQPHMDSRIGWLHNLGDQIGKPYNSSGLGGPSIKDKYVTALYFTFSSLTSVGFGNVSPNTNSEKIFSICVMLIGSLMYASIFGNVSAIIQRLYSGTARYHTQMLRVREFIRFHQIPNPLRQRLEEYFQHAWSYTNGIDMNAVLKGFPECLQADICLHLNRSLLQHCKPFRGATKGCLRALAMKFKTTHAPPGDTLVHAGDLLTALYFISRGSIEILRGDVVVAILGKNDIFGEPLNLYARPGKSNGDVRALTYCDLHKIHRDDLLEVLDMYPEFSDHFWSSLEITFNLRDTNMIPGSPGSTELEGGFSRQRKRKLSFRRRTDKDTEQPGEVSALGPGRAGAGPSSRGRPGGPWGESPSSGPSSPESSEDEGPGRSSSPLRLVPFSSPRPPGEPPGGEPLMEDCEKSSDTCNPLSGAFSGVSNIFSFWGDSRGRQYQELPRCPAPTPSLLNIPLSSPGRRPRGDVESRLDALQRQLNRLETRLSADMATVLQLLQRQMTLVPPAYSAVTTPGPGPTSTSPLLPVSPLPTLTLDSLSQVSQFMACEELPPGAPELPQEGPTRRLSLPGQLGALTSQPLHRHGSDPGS

Row | Structure (SMILES) | hERG current change (%, negative = inhibition) at 1uM
1 | C/C(Cc1ccccc1)=N\NC(=O)CNC(=O)c1cccc(Cl)c1 | 16.1%
2 | COc1ccc(Cc2nnc(NC(=O)Nc3ccccc3OC)s2)cc1 | 14.7%
3 | Cc1nn(CC(=O)Nc2ccc3c(c2)OCO3)c(C)c1Cl | 13.5%
4 | CCC(C)NC(=O)CNC(=O)c1nn(-c2ccc(OC)c(Cl)c2)c(=O)c2ccccc12 (stereo not shown) | 6.84%
5 | O=C(Nc1nnc(-c2ccc(Cl)cc2)o1)C1=COCCO1 | 12.8%
6 | CS(=O)(=O)N1CCC(NC(=O)Nc2ccc(OC(F)(F)F)cc2)CC1 | 8.36%
7 | CC1=CC(=C2C(=O)NC(=S)NC2=O)C=C(C(F)(F)F)N1CCc1ccccc1 | 12.9%
8 | O=C(NCCS(=O)(=O)N1CCN(c2ccccc2)CC1)c1ccccc1F | 13.4%
9 | COC(C(=O)Nc1cccc(F)c1)c1ccccc1 (stereo not shown) | 17.2%
10 | CC(C(=O)NC1C=CS(=O)(=O)C1)N1C(=O)/C(=C\c2ccccc2)SC1=S (stereo not shown) | 14%
11 | O=C(NCCc1csc(-c2ccccc2)n1)c1ccc(Br)o1 | 14.3%
12 | C=C(C)C1CC=C(C)/C(=N/NC(=O)COc2ccccc2Cl)C1 (stereo not shown) | 8.98%
13 | Cc1csc(NC(=O)c2cc(=O)[nH]c3ccccc23)n1 | 12.5%
14 | CCCn1c(N)c(C(=O)CN2CCc3ccccc3C2)c(=O)n(C)c1=O | 7.38%
15 | COc1ccc(/C=N/NC(=O)c2nc(Cl)c(Cl)c(N)c2Cl)cc1COc1ccccc1F | 4.2%
16 | CCOC(=O)C1=C(O)CSC1=Nc1ccccc1 | 7.62%
17 | COc1ccc(C2CC(=O)N(c3ccccc3)C3=C2C(=O)CCC3)cc1 (stereo not shown) | 14.2%
18 | Cc1nc2ccc(NC(=S)N3CCC(C)CC3)cc2nc1C | -13.3%
19 | O=C(CCC(=O)N(CC(=O)NC1CCCCC1)CC1CCCO1)Nc1nccs1 (stereo not shown) | 9.83%
20 | O=C(c1cnn(-c2cccc(F)c2)c1)c1ccccc1O | 5.17%

Row | Structure (SMILES) | hERG current change (%, negative = inhibition) at 1uM
21 | CC(NC(=O)COc1cccnc1[N+](=O)[O-])c1ccc(F)cc1 (stereo not shown) | 9.27%
22 | Cc1c(C(=O)N2CCN(Cc3ccccc3)CC2)sc2ncnc(N3CCOCC3)c12 | -2.83%
23 | COCCNC(=O)c1c(N)n(-c2cccc(C)c2)c2nc3ccccc3nc12 | 1.61%
24 | O=C(Nc1cccc(F)c1)N1CCC(n2c(=O)[nH]c3ccccc32)CC1 | 2.25%
25 | CCOc1ccc(NC(=O)CCc2ccc(C)o2)cc1 | 14.6%
26 | CCOc1ccc(S(=O)(=O)N(CC)CC)cc1NS(=O)(=O)c1ccc(F)c(F)c1F | 11.8%
27 | COc1ccc(Oc2ncccc2[N+](=O)[O-])cc1 | 11.5%
28 | COc1ccccc1CNC(=O)C1CCN(S(=O)(=O)N2CC(C)CC(C)C2)CC1 (stereo not shown) | 9.65%
29 | COC(=O)c1sccc1NC(=O)C1CC=CCC1C(=O)O (stereo not shown) | 18.5%
30 | Cc1cc(OCCN2CC2)c2ccccc2n1 | 2.39%
31 | COCCn1c(SCC(=O)c2[nH]c(C)c(C(C)=O)c2C)nc2ccccc21 | 9.22%
32 | COc1ccc(N2C(=O)C3CCCN3C2c2cccc(Br)c2)cc1 (stereo not shown) | 5.51%
33 | O=C(COC(=O)c1ccc(Br)o1)Nc1ncc(Cl)cc1Cl | 4.79%
34 | Cc1nc2ccc(NC(=O)N3CCSCC3)cc2s1 | 18.5%
35 | Cc1c(C(=O)N2CCN(c3ccccn3)CC2)sc2ncnc(N3CCN(c4ccccc4)CC3)c12 | -14.5%
36 | COc1ccc(Cl)cc1C(=O)NC1=NCCS1 | 11.3%
37 | Cc1ccc(-c2ccc(/C=N\NC(=O)C3C(=O)NCC3c3ccccc3)o2)cc1Cl (stereo not shown) | -11.6%
38 | CCOC(=O)c1cnc(C(F)(F)F)nc1Oc1ccccc1 | 11.1%
39 | CCn1nnc2sc3c(c2c1=O)CCC(C)C3 (stereo not shown) | 7.15%
40 | CC1CCN(CCC(=O)NN)CC1 | 13.7%

Row | Structure (SMILES) | hERG current change (%, negative = inhibition) at 1uM
41 | Cc1ccc(CCNC(=O)C2CC(=O)N(C3CCCCC3)C2)cc1 (stereo not shown) | 7.43%
42 | Cc1snc(SCc2cccc(Cl)c2)c1C#N | 11.6%
43 | CN(C)c1cccc(C(=O)NNC(=S)NC2CC3CCC2C3)c1 (stereo not shown) | 4.23%
44 | O=C(Nc1ccccc1C(F)(F)F)c1cccnc1 | 16.8%
45 | COc1ccccc1NC(=O)CSCC(N)=O | 9.15%
46 | COc1ccc(NC(=O)c2cc(-c3ccccn3)nc3c(C)cc(C)cc23)c(C)c1 | 11.4%
47 | O=C(CN1CCCCC1)NCCNc1ccc(C(F)(F)F)cc1[N+](=O)[O-] | -10.8%
48 | CN(C)S(=O)(=O)c1ccc(NC(=O)C2COc3ccccc3O2)cc1 (stereo not shown) | 0.576%
49 | Cc1ccc(C(=O)C2CN(C)CC2C(=O)c2ccc(C)cc2)cc1 (stereo not shown) | -12.3%
50 | O=C(CNC(=S)N(Cc1ccccc1F)C1CCCCC1)NCC1CCCO1 (stereo not shown) | 8.49%
51 | Cc1nc2ccccc2c(=O)n1-c1ccc(C(=O)O)cc1 | 5.02%
52 | CCN1CCC(CNCc2cn(-c3ccc(OC)cc3)nc2-c2ccccc2Cl)C1 (stereo not shown) | 7.14%
53 | COc1cccc(-c2nn(CCC#N)cc2C(=O)Nc2ccccc2Cl)c1 | 16.1%
54 | COc1ccc(Cn2c(=O)[nH]c3cc(C(=O)NCCc4ccc(S(N)(=O)=O)cc4)ccc3c2=O)cc1 | 13.3%
55 | O=C(NCc1ccc(F)cc1)c1ccc(N2CCc3ccccc32)c([N+](=O)[O-])c1 | -0.536%
56 | O=C(Nc1nnc(C2CC2)s1)c1cc(S(=O)(=O)N2CCCCC2)ccc1N1CCOCC1 | 7.73%
57 | O=C(CSc1ccc(-c2ccccc2)nn1)c1cccs1 | 8.52%
58 | O=C(NNC(=S)NC1CCCCC1)c1ccc(Cl)s1 | 27.7%
